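96-well plates; 48 h exposure; 5 concentrations. Endpoints by linear interpolation between flanking doses. Not reached: highest tested concentration assigned. The concentration for 50% growth inhibition is given as GI50. At the TGI there is no net growth.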

For this test, the system named is NCI-H322M lung. In words: growth of human tumour cells (NCI), 48 h.
Turning to `Cn1cc(-c2cc3nc(-c4cn(C)c5ncccc45)cc(N)n3n2)c2ccccc21`, the GI50 is 11.6 µM and the TGI was 77.7 µM.

For `COc1ccc(/C=C/c2nc3ccccc3n3c(-c4cccc([N+](=O)[O-])c4)nnc23)cc1`, the GI50 was 7.09 µM and the TGI stood at 20 µM.

On to `COc1cccc(-c2nn(-c3ccccc3)cc2-c2ccnc(NCCCNC(=O)Nc3ccc(F)cc3)c2)c1`, for which the GI50 was 9.57 µM and the TGI was greater than 37 µM.

On to `CN1CCN(Cc2ccc(C(=O)Nc3cccc(Nc4ccc5cc(O)ccc5n4)c3)cc2C(F)(F)F)CC1`, for which the GI50 was 11 µM and the TGI came to 23.4 µM.

With `CCOC(=O)c1ccc(NC(=O)CSC(CC(=O)c2sc(Nc3ccccn3)nc2C)c2ccccc2F)cc1` (configuration not stated), the GI50 was 25.4 µM and the TGI was greater than 100 µM.

`CCN(CC)CCOc1ccc(Nc2ncc3cc(-c4ccc(O)c(C#N)c4)c(=O)n(C)c3n2)cc1`: the GI50 is greater than 100 µM and the TGI is greater than 100 µM.

For the origin of these results see PubChem BioAssay (NCI).
